Consider 72 sequences from paper PMC10726135.

Some of the results follow. At the low end of the ranking, values are background and their order means little. The protein was read in a cell extract, so binding may be indirect.

This assay concerns the target T1, HNF4alpha8 (COS-7 nuclear extract) (UniProt P41235-5).
T1 sequence: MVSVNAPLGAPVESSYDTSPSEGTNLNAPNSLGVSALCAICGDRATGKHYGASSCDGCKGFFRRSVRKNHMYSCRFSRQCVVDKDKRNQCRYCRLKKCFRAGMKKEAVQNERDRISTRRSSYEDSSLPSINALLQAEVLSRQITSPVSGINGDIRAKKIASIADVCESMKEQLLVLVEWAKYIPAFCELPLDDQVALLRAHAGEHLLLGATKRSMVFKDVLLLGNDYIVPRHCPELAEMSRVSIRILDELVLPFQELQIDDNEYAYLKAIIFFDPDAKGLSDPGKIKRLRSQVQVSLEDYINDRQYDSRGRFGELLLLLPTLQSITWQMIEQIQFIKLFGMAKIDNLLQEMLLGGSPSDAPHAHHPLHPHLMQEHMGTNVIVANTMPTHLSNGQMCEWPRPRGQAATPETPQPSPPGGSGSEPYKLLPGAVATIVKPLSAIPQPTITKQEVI
Nature of the assay: protein-binding microarray. The settings on record: COS-7 nuclear extract on double-stranded Agilent 4x180k PBM; binding buffer, salt, pH and temperature not given; high values mean tight binding; double strand, one strand shown; sequences stand for … in …GCCTAGGGAGATTAGAGTATCGGTCGA
In the case of CTTTTTTTCCCCCTCACTGAATATGTTCGG, the binding signal (log2 normalized intensity) was 2.47.

For CCAGCCCTTCACCAGAGCCGTCTGGTAAAT, the binding signal (log2 normalized intensity) was -1.35. As for GAGGAACAGGTGGGGGTAAACATAGCAGAA, the binding signal (log2 normalized intensity) was -1.14. Under GGCAATTTCCCTGGTCGACCTCCCCGTCAC stands 2.77.

Take CCCTGAGTAGTTCTTCTGGTTAGTTTTTCA: the binding signal (log2 normalized intensity) is 1.66.

Consider CCAGCTAGAAGCAGTGGGACAAAGGTCACA, for which the binding signal (log2 normalized intensity) was determined as 6.82.

With TTCACTCCCCTGACAGCATGTTCGGCTGAG, the binding signal (log2 normalized intensity) came out at 1.91. In the case of CCCTGCAATTTGATTTGTATGATCTTGGGT, the binding signal (log2 normalized intensity) was 1.73. For the sequence TGGTATTTAAGGTCACATGCCTAGGTAAGC, the binding signal (log2 normalized intensity) was found to be 1.43. Under ACCGCCATAACTCAGCGGGAGGCAAGATAA stands -1.36. Under CACCTCTTCCAGAGTTCAGAGGAACTTTAT stands 1.21; under GACCTTAGTACTCTGCCATGTGCTATTCTG, 3.11; under CTGGGACTTCAAAGCGCAGCGCGGGGCTCA, -1.33. For CGTAAGGGTCTGACCTGGCTGCTTGCCATG, the binding signal (log2 normalized intensity) is -0.486. For TCTGAAGGGAGGGCCAAGCCCTCCATCCAA, the binding signal (log2 normalized intensity) is -1.33. Next, TAGAGGAGCCAGAGGGGCCAGGAACGTCAC: -1.16; GTGTTCCCACAGTGCCCTCTATTGGCTGTT: 2.39; GGAATTGGGAGGACAGATAAGGTCTGCTGA: -1.26.

Turning to ATGGGGGAGCCACTGCAGCTTTCTGAGTAG, the binding signal (log2 normalized intensity) was -1.31. In the case of TAGCTTGGTTTTTCTGGGACCAAGGGTCAG, the binding signal (log2 normalized intensity) was determined as 4.54. As to AACAGGAGCAAATATCGCTTGTCTTACGGA, the binding signal (log2 normalized intensity) was -1.27. For TCATTCTCTGTTGCATGGTTGACATACTTC, the binding signal (log2 normalized intensity) worked out at 1.23.

As for GAGTGCAGGTGGGAGGGGTGGACTTTGGCT, the binding signal (log2 normalized intensity) worked out at 6.22. Next, ACTGGGGTGGAGATGCCGTCGGCACACACG: -1.29; TTCACTTTCTCTTATAGCTCAACCCCCAAA: 5.33.

As to GCTGGTTTGCCATTTGGAGAGAGTTTGGCC, the binding signal (log2 normalized intensity) turned out to be 1.76. Next, TAGGAATTCCAAGAAGGCAGACTCAAGATA: -1.33; AAAAGTAGCTGTTGGAATTTGGTCACAGAA: 2.96. Under TTGCCCTTAAGCAGCATGTAGTTTAGTTGG stands 2.38. As for GGGGGACTTCAAAAGCCGGGGAAAGGGAAA, the binding signal (log2 normalized intensity) was -1.28. Next, CTGGGTTCCAAAAGGCACATAGATTCCCAG: -1.28; TATTTGGATAATGTGCCCTTTGTACCTGGG: 7.72. Turning to TTCGGGAGACATGTGGCCTTTGGTACAGGG, the binding signal (log2 normalized intensity) is 3.19.

Consider GTGACTCTAGGAACCTTTCTCCATACCTCT, for which the binding signal (log2 normalized intensity) was -0.874. Under AGAGGGTTAACCCCTATTAACCAAAGCTAC stands -1.16; under CCTTGTTGCCCACCCCCCAAGTAGAGAGCA, 5.1. Next, CCAGTCAGAATCTCTCTGTAGGTAAAGACT: -0.917; CTCTTTCTAGGTCACCACCTTTTTTGGCCT: 1.73; GTGTGCAATTAGAGCAAAGGTTACTGCAGA: 3. Under GTCAAAGGGTACAAATTCCAGAGAGGGGCC stands 1.93; under AATAATAGTTGACCTTTGAGAACCTCCCAT, 4.66; under TCTAGAGTCTGACTACTTCTCACCACCTCT, -1.25. On to ATGCCTCACCTGGCAAGGCAGCCTCAGCCA, for which the binding signal (log2 normalized intensity) was -1.23.

In the case of AGGGGCAGGGTTCACATAGCCACCAGGGCC, the binding signal (log2 normalized intensity) was 0.88. As to CCCTCAGCAAACCTTCTGGCAGTGGGAGTA, the binding signal (log2 normalized intensity) is -1.32. With ATTAACCTTTGAGCTGGGTGGCCCTCTCCC, the binding signal (log2 normalized intensity) worked out at 3.57. TTGGACATGTAACTGCTATTGGTTGTCAGA: the binding signal (log2 normalized intensity) amounted to 1. Under GTGAATAGCACTGACCAGCTCCAAAGTCCG stands 3.71. As to AGAACCTTGGAGGCGGCGGCTCCGGGAGCT, the binding signal (log2 normalized intensity) was -1.31. As for CTGTCCATCTTTTGCCCCTCTTATGCCCCT, the binding signal (log2 normalized intensity) worked out at 5.51. Under CTCTCCCCAGTTCAAAGGTTAAGACTTTGA stands 5.44; under GGAATCCTCCTAAGTAGCCAAGATTACAGC, -1.3; under GACCCTGGCCGGAAACTCCGCCCCATTGTC, 2.04. Under GCAGGTAGGGGTGGGATGGGGAGCAGTGGG stands -1.44; under TAAAGCAGAGGGCTGCTTGCAGGAGGCCGG, -1.37; under GTGACCCGTGACCCTCAGGAACCAAGCATT, 1.9. For TGAGATAGGAGGTCAGCACAAGATACAGCT, the binding signal (log2 normalized intensity) is -1.3.

For GTTCCTGCCTGGAGCCACTGAAGTGAGTTA, the binding signal (log2 normalized intensity) is -0.757.

On to GGAGAGAAAAGCAAGATTGGGAGCTGGGAG, for which the binding signal (log2 normalized intensity) was -1.36. Under GGAGGTTATCTTGGGGCTAATGTCTCTCTG stands 1.1; under TGTTTATCTTACAGGCTTATACGTGGAAGA, 0.663.

With TTTCAGTGCCCTCATAAGAGACTTTGCCCT, the binding signal (log2 normalized intensity) stood at 7.15. Under GTAGCTTCAAACCAGTTATTCCAAGATCCA stands -1.15; under TTTCTCCTCTCTGGGCTTCCATTGTGATTC, 0.00881.

With GGGTCAAAGCCCAGGAGAGCAAAAAGGGCC, the binding signal (log2 normalized intensity) was -1.3. Under GTGTTTATAAAGTTGGGAAAAGTAACACAG stands 0.696; under TTCAGTCTAAATGATGGCCAGGGAGTACAC, 1.22.

Take CCGGACTCTGCCCCACAATTCTTGGATCTC: the binding signal (log2 normalized intensity) was 1.97. Regarding TCATGGGCCAAAGTTTGTTTCTTATCACAC, the binding signal (log2 normalized intensity) was 1.4.

As for ACCTTTGTTCACATTTGTGCTCAGCCAACA, the binding signal (log2 normalized intensity) is 0.549. Next, CCCCAGAGGTGGAATCTATAGAGGCAGTGA: -1.2; CAGAGACATGCTAGCCTCGAGATAACCCAC: -1.18.
